# Experimental data reported in PMC12136788.
# This is one part of the list.
# T1: UNK ZnF1-3 (human, UniProt Q9C0B0 31-174)
# T1 sequence: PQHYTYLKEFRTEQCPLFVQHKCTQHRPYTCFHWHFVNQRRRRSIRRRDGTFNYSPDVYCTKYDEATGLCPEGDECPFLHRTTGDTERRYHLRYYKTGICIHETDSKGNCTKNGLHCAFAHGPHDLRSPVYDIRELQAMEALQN
# B1: chr1:183495733:183495734:+_ENSG00000116698_ENST00000515829|hu_mus|FALSE|FALSE (ssRNA)
# RNA: GGGAGUUCUACAGUCCGACGAUCGGAAGACUUCACACGGCAUGGCAAAUCUACAUUAAACACCGUACACAGUUCCUGUAAUAACUGAGUAUAGAAGCCGCUAGCUGCCUCUAGGAACAGAGAAAGGUUUGCCUGGACUUCACUCAACAGAGGAUUGAGCAUCA
# B2: chr1:6238667:6238668:+_ENSMUSG00000025907_ENSMUST00000027040|mus_mus|FALSE|FALSE (ssRNA)
# RNA: GGGAGUUCUACAGUCCGACGAUCCAUCAUUUCUGGACUUUGUGGAUCACUUAUAGGGUUUGGAGACGAUAAAUUUUCUUCUAUCACAAACUCAUUCACAGCAGACAUAAAGUCAGACUCAGGGCUUUCUGCUAAUGAAUCCAACAACAGAGGAUUGAGCAUCA
# B3: chr11:51605143:51605144:+_ENSMUSG00000020386_ENSMUST00000020653|mus_mus|motif|central (ssRNA)
# RNA: GGGAGUUCUACAGUCCGACGAUCGGGAAGCUGAUCUUUAUAAACGGUGAUGGAUUGAUGUGGGGUUAGAAACUGUAAAAACGGUCUGUGUGGAAUUAGAAAGCUAACAUUGUGAUAUUCAAACUUGAAUCAGUUUGCAAUUCCCAACAGAGGAUUGAGCAUCA
# B4: chrX:132779699:132779700:+_ENSMUSG00000042712_ENSMUST00000048687|mus_mus|FALSE|FALSE (ssRNA)
# RNA: GGGAGUUCUACAGUCCGACGAUCAUUGAAGCAAGCUGUCUCUUCUGGCCGCUGGCCUCUCGCACCACCGUCUGCAAGGCUAAAGGGAGCUGGUACCCAGAUGGAAACAAGGACCAGACUAGCAGGAUUUCUGCACACGUCGACCAACAGAGGAUUGAGCAUCA
# B5: chr2:90620368:90620369:+_ENSMUSG00000008200_ENSMUST00000013759|mus_mus|FALSE|FALSE (ssRNA)
# RNA: GGGAGUUCUACAGUCCGACGAUCAGUGGCUUAUACUUAUUGCCACAUACUUAGGGGGGAAUUUCUCAAAACCAAGGAUCUAAACACCUGCUGCUUGCUGCUGCUCCUGCCUGUGCUGCAAAGCGAGCAUUCUAGGGUGUGUGUCAACAGAGGAUUGAGCAUCA
# B6: chr14:76904430:76904431:+_ENSMUSG00000022010_ENSMUST00000022587|mus_mus|mus_mus_mus_hu_True|28_108 (ssRNA)
# RNA: GGGAGUUCUACAGUCCGACGAUCUGCUGGAAAAAAAACCCUCGUGGAAAAAAAGAGGGAACACCAGCAGCCUUGUAUAAGCUAGAUAAAAUCUUCUGGCUUUCCGCAGCUCAGGGCGAAACAGAAAACGGCAGCCCUAAUUUACAACAGAGGAUUGAGCAUCA
# B7: chr5:130536139:130536140:+_ENSMUSG00000025532_ENSMUST00000026608|mus_hu|FALSE|FALSE (ssRNA)
# RNA: GGGAGUUCUACAGUCCGACGAUCGCCAGGCCGGUUCUUUUCUUAUCUCUGUUGUUCUCGAGGAAAUUCCUCUAAGGUGAGCCAAGGUCAGUGGCUCAUUUUAACUUAGAGUAACUCUCUGGGGACUCUAACCAGACUUCCAACCAACAGAGGAUUGAGCAUCA
# B8: 66883328_66934737_440_3pUTR_ENSMUSG00000029207_ENSMUST00000159786|mouse|control|control (ssRNA)
# RNA: GGGAGUUCUACAGUCCGACGAUCUACCUUCUGCCCAUAGCGACAGUCAGCGUGUGAGUGGGGGACUCAGGAACUCCCAAGGACUCCAGAAACAGAGAGAGGGCUAGCUGGGCGCACUUAAGUCAGCAGGUGGGAAUCAGCUCUCAACAGAGGAUUGAGCAUCA
# B9: chr1:186721242:186721243:-_ENSMUSG00000026620_ENSMUST00000027929|mus_mus|motif|central (ssRNA)
# RNA: GGGAGUUCUACAGUCCGACGAUCAUAAUGAGUAUUAAAAAGAUGUGCCUUUUCUAGUGGCUUUACGUCGCAUACGUCACGGAUUAUGAAAGAAGGCAAAUGACCAGUUACAAAGCUCCACAUGACUGGAAUAAUGAUGUGGAACAACAGAGGAUUGAGCAUCA
# B10: chr2:172803269:172803270:+_ENSG00000128708_ENST00000264108|hu_hu|motif|central (ssRNA)
# RNA: GGGAGUUCUACAGUCCGACGAUCAAAAGCAGUUUCAUCAUCCCCAAAGAGUUGAUGGGUAUACUCAGGAAAGAAAGUUCGGAUGUCAUUUUCAAGAUCUUCAGGAAAACGAACUAAUUUUAGUUCAAUUGCUGUGUUGGUGUUCAACAGAGGAUUGAGCAUCA
# B11: chr17:60770872:60770873:+_ENSG00000011028_ENST00000303375|hu_hu|hu_hu_hu_mus_True|8_68 (ssRNA)
# RNA: GGGAGUUCUACAGUCCGACGAUCUCUUUAAAAAAAAAAAAAAAAAGACAAACAAUAAUAGCACAUUAUUUAAAAAAAGAACUACAAUAGAGGGUCCGCUUUGAGUUUUUGUUCACAUCGUCCUGCAACGCUGUCGCGGGACUGCAACAGAGGAUUGAGCAUCA
# B12: chr4:54876292:54876293:-_ENSG00000109220_ENST00000263921|perfect_dup|FALSE|FALSE (ssRNA)
# RNA: GGGAGUUCUACAGUCCGACGAUCCUAUAAAUAAAGUAAAUGCUAAUCUGGUCGAAAAAUCGGUGUCUUUGGUAAAAAUUCUAUGAGGAUGACAUAUUCCAUCAUGUUAUUCGUUUCACAUUUCCUUUUGCUCAGUCUCCAAUGCAACAGAGGAUUGAGCAUCA
# B13: chr2:74706439:74706440:+_ENSMUSG00000027099_ENSMUST00000155844|mus_hu|FALSE|FALSE (ssRNA)
# RNA: GGGAGUUCUACAGUCCGACGAUCUGUAGCUUCAUCACACCACUGAAGAUACAGCUCUGCAGUCAACAGCAUAUUGUUGACUAAUUCCAUGUAAGCUUUCAUUUCUGCUUUUUGGACUUCCUCCAGCCCAUCACUAAGAGAAUGCAACAGAGGAUUGAGCAUCA
# B14: chr12:39687257:39687258:-_ENSG00000139116_ENST00000551264|hu_mus|FALSE|FALSE (ssRNA)
# RNA: GGGAGUUCUACAGUCCGACGAUCAAACCCAAUCAAACAGCACUUAGAAAUUCAUACAGUCAUAAUGCAAGAUAGUCUCUCUUUACAGUCUACUUAUUUACAUGGGUUCCCACCACAAAUGAUAACAGUCUACCAAUGUGUGCACAACAGAGGAUUGAGCAUCA
# B15: chr8:80577206:80577207:+_ENSG00000104435_ENST00000220876|hu_hu|FALSE|FALSE (ssRNA)
# RNA: GGGAGUUCUACAGUCCGACGAUCUUUUUUUUAAUUUUUGAUUUUUUUUGUUUUUUUUUUUUUAUAAUGAGUUCUUUUUAAACCAUGUCAUACAUUCCCCAUCCUGAUAUCGCAUGAUCCAUUAUAAUAUAGGCAGGGGGAUUUCAACAGAGGAUUGAGCAUCA
# B16: chr1:43162399:43162400:+_ENSG00000065978_ENST00000321358|hu_hu|motif|central (ssRNA)
# RNA: GGGAGUUCUACAGUCCGACGAUCAUUCUGGUAAUUUUGCUGGUAAUUGCGUGGAGGACCCCUACGACGUGGAUAGCGUCGGUAAUGGUUACGGUCUGCUGCAUAUUUACUGCCUUGAACUGGAACACCACCAGGACCUGUAACCAACAGAGGAUUGAGCAUCA
# B17: chr17:65740002:65740003:+_ENSG00000130935_ENST00000581375|hu_hu|hu_hu_hu_mus_False|38_88 (ssRNA)
# RNA: GGGAGUUCUACAGUCCGACGAUCAACAAAUCUUUCUUCCCUGGACGCAAGAGUUCAUUCAUAUUAAAAAAAAUAUAUAUCCAUCAAGUUAGGUGUGUAAUAUCAGACUUUACUCCCAGCACUUUGGGAGGUGGAUCUCUGAGUCAACAGAGGAUUGAGCAUCA
# B18: chr2:30816663:30816664:-_ENSMUSG00000026849_ENSMUST00000028200|mus_mus|motif|central (ssRNA)
# RNA: GGGAGUUCUACAGUCCGACGAUCUCUGAUGCACAUUUUCAGGUGCUUGUACUCCAGGGGCAGGAAGGGGACAAAAUAAUCGGUGAGGUUCCGGUCAAUGAGGCUGCUGUGCCAGAAGCCACUGUUCUUGUUAUUGAAGACCGACAACAGAGGAUUGAGCAUCA
# B19: chr7:54823571:54823572:-_ENSG00000132432_ENST00000352861|hu_mus|hu_hu_hu_mus_False|1_98 (ssRNA)
# RNA: GGGAGUUCUACAGUCCGACGAUCUCCCAUGAUAGCAAAUCCUAUUGCUGUAGCCAUGGCAAUCUUCUGGAAUUCUUUUCUGUCGGGUUUGGUGCAUCUUUUAACCAGCCGAAUUGAGUCCUUUACAAACUGCCGGCUUGGCUCCAACAGAGGAUUGAGCAUCA
# B20: chr17:49627581:49627582:-_ENSMUSG00000040260_ENSMUST00000057610|mus_mus|FALSE|FALSE (ssRNA)
# RNA: GGGAGUUCUACAGUCCGACGAUCAUUCUCGUGUUGCCGGAGUUUAUCAAUCACUGGCUGGAUCCCCAGCAUCAGGAACUCAUACCGGAGAUGCAGGCGGAAUUCCAGGUUAUCCUCUCCAGCGCCAGCAUUGAGGACAGCAUUCAACAGAGGAUUGAGCAUCA
# B21: chr7:31145180:31145181:-_ENSMUSG00000036957_ENSMUST00000046351|mus_hu|FALSE|FALSE (ssRNA)
# RNA: GGGAGUUCUACAGUCCGACGAUCGAGCAGGGGCAGGCGGGAGAAGAGUGGGUCGGGUGGGAUUGUGGUCAGGCGGUUGGAGGUCAUGUCCAGCCGGGCCAGCUUGUGCAGGCGGGAAAAAGCGCCGGCGGGCACAGAAGCCAGCAACAGAGGAUUGAGCAUCA
# B22: chr3:9412954:9412955:+_ENSG00000134077_ENST00000452837|hu_mus|hu_hu_hu_mus_False|1_28 (ssRNA)
# RNA: GGGAGUUCUACAGUCCGACGAUCGGUUGAUAUCUCUUCUUUGAUGGCUGGAUUUUCAUAAUAGUCCAAGAUAUGUGAAUCUGAAGUGCUGCUGGCAUGCUUUUUCUUAACAUUUCUCUCAUCUGCUUUGUCUCCUUGUCCAUUCAACAGAGGAUUGAGCAUCA
# Target: T1, UNK ZnF1-3
# Assay: nsRBNS (natural sequence RNA bind-n-seq); RBNS binding buffer (assumed for nsRBNS): 25 mM Tris pH 7.5, 150 mM KCl, 3 mM MgCl2, 0.01% Triton X-100, 500 ug/ml BSA, 20 U/ml SUPERase-In, 4 C; UNK is unkempt and MSI1 is Musashi-1; names of the RNAs are library labels; protein concentration not given here; high values mean tight binding
row,Binder,binding signal [enrichment R]
1,B1,1.07
2,B2,1.18
3,B3,1.15
4,B4,2.08
5,B5,0.907
6,B6,1.44
7,B7,0.876
8,B8,1.22
9,B9,0.692
10,B10,0.848
11,B11,2.2
12,B12,1.28
13,B13,0.571
14,B14,1.47
15,B15,1.55
16,B16,0.89
17,B17,1.28
18,B18,1.09
19,B19,0.639
20,B20,1.2
21,B21,1.81
22,B22,0.404
